Some of the results follow.

The values that follow come from PMC7819943, “Rice protein-binding microarrays: a tool to detect cis-acting elements near promoter regions in rice”.

In the test the target is T1, OsWOX13 (Oryza sativa, UniProt Q5QMM3 1-267).
T1 sequence: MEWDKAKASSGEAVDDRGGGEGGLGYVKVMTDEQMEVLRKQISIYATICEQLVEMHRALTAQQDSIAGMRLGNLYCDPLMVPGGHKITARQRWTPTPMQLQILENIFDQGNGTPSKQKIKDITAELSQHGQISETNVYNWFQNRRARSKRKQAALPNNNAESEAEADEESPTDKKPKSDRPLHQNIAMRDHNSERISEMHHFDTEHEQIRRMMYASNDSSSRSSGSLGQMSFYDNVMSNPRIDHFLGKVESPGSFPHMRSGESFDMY
The experiment in a line: protein-binding microarray (RPBM); PBS, 2% BSA, 51.3 ng/ul salmon testes DNA, 50 uM zinc acetate, 200 nM TF, 25 C, 1 h; high values mean tight binding. The following applies: protein: recombinant; tags: N-terminal polyhistidine and DsRed monomer fusion (pET32a); label: CyDye5-dUTP incorporated in the synthesized complementary strand; 3' TTTTT single-stranded linker to array surface; dsDNA, one strand shown. Put shortly: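 Polyhistidine-tagged DsRed fusions of transcription factors, joined at the N-terminus, were expressed in E. coli BL21-CodonPlus and isolated on Ni–NTA. They were incubated at 200 nM for 1 h at 25 °C on a custom Agilent array, double-stranded and BSA-blocked, in PBS with 2% BSA, salmon testes DNA and 50 µM zinc acetate. The binding signal is per-feature fluorescence intensity (arbitrary units) read on an Axon 4000B scanner after washing.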
As for “ATGATTTACATTATGAAACGGAGGGAGTAGCATGCAAAAGCGGAGTCACCTAGTGCAG”, the binding signal was 24000 fluorescence intensity (a.u.).
In the case of “ATCCCAGCTTAATTGACCCTATGATCTGACGCCCTTCTCCCGGAGTCACCTAGTGCAG”, the binding signal is 22500 fluorescence intensity (a.u.).
On to “TTATAAATTTGAATACCAAATCCAGTTTTCTTGTGGAAGTCGGAGTCACCTAGTGCAG”, for which the binding signal is 9550 fluorescence intensity (a.u.).
Take “ATATATATTAGCTATTAAATTGACTAGATTATTTAGAGGGCGGAGTCACCTAGTGCAG”: the binding signal was 27300 fluorescence intensity (a.u.).
Then “ATGGCTGATTGCTGGATGATCATAGATAGCTGCAGGAGATCGGAGTCACCTAGTGCAG”, with 30500 fluorescence intensity (a.u.).
In the case of “CACTATCTGATCCTAATTACACACTGATGCAGGGGTAAATCGGAGTCACCTAGTGCAG”, the binding signal was 3790 fluorescence intensity (a.u.).
With “AAGTTGATGAGCTTGATGCACCCGTAGAAATCCATCCCCGCGGAGTCACCTAGTGCAG”, the binding signal is 9150 fluorescence intensity (a.u.).
Then “AGTGTTTATTGTCTATTTGGTTTGGAGCTAAATTTTGGCACGGAGTCACCTAGTGCAG”, with 3720 fluorescence intensity (a.u.); and “TTTGATTGTTTGTTTTAGAATGTGATCTTCATCAAATCATCGGAGTCACCTAGTGCAG”, with 41300 fluorescence intensity (a.u.).
Regarding “ACCGTGGATTGACGCGAGGGCGGTGCAGGGAACCCGGGGCCGGAGTCACCTAGTGCAG”, the binding signal is 17800 fluorescence intensity (a.u.).
Then “CAAATTAAACAATTATCAGTTGAAGTAGAAGCTGGAATAGCGGAGTCACCTAGTGCAG”, with 9170 fluorescence intensity (a.u.); and “TATAAAATGATTTTCATGATAAATCTATCGATGCGGTTTTCGGAGTCACCTAGTGCAG”, with 14900 fluorescence intensity (a.u.).
Then “TTTTAATTGAAGTACAGCGATATTTACCAAATTTCGATCACGGAGTCACCTAGTGCAG”, with 33600 fluorescence intensity (a.u.); and “ATGAATGACAGTCATACTTGTGTTGAGTGCTAATCTGTCTCGGAGTCACCTAGTGCAG”, with 10700 fluorescence intensity (a.u.).
Then “ATAATTAAATGGGTCCCATTTATCAATCAAAATAATGCCACGGAGTCACCTAGTGCAG”, with 35000 fluorescence intensity (a.u.).
Turning to “TCCTCTCAAATTAAACTCCCAAATTAATTAAAGAGAAGCACGGAGTCACCTAGTGCAG”, the binding signal was 7860 fluorescence intensity (a.u.).
Then “CTGATTTGCTTGATTCAGATTGACAGCTCAATGCAAAACTCGGAGTCACCTAGTGCAG”, with 44300 fluorescence intensity (a.u.); and “CCAGCCATTTAGTCGTTAAATTAGAGATTAGAGAGTAGAGCGGAGTCACCTAGTGCAG”, with 4810 fluorescence intensity (a.u.); and “AATAAATAAAACTCAATCAATCATACGATAATACCATCTCCGGAGTCACCTAGTGCAG”, with 29700 fluorescence intensity (a.u.).
Then “TTGTAATTAGTGTATGTTTAATACTCTAAATTAGTGTCCACGGAGTCACCTAGTGCAG”, with 32500 fluorescence intensity (a.u.); and “GTTCAAATTTGTAGTAATAGATTATGTCATATCCAATACTCGGAGTCACCTAGTGCAG”, with 18700 fluorescence intensity (a.u.).
Regarding “CCGCAAATTGCGTATTTCAAGCGGTTTCTGATTTGCCTTTCGGAGTCACCTAGTGCAG”, the binding signal was 14700 fluorescence intensity (a.u.).
In the case of “ACCAAAATTGGAAGTTTGGTTGAAATTGGGACGATGAACGCGGAGTCACCTAGTGCAG”, the binding signal is 10500 fluorescence intensity (a.u.).
Turning to “GTATATAAAATTTTATTCACAAATTAGTTTTCGTTTGCAACGGAGTCACCTAGTGCAG”, the binding signal was 3910 fluorescence intensity (a.u.).
Then “GCCTTAACTCGCATCATCAAGTCACTCATCAAGCGAAGCACGGAGTCACCTAGTGCAG”, with 4780 fluorescence intensity (a.u.).
As to “GTATCTTAATGATTTGTTTAAAATATTACTAGTATCTTAACGGAGTCACCTAGTGCAG”, the binding signal is 8280 fluorescence intensity (a.u.).
For the sequence “GTAATTAGCTAATCAATCTTTTCGGCTGTGCTTAATTAACCGGAGTCACCTAGTGCAG”, the binding signal was 33500 fluorescence intensity (a.u.).
As for “ATCTGCAATCAAATCAACGCTATATATGCACCGAGACACACGGAGTCACCTAGTGCAG”, the binding signal is 10300 fluorescence intensity (a.u.).
Consider “GATTAATTGAATTATGATTTGTCTCATCTAGTAAAATGTTCGGAGTCACCTAGTGCAG”, for which the binding signal is 47500 fluorescence intensity (a.u.).
Then “ACTAATTAGACTTAAAAGATTTGTCTCATGATTTACTCCCCGGAGTCACCTAGTGCAG”, with 56300 fluorescence intensity (a.u.); and “GCAGGAATTTTCCATGGACTAATTAAAAGTTTAATTAGTTCGGAGTCACCTAGTGCAG”, with 6050 fluorescence intensity (a.u.); and “AGCTAGCTAATTAGTTACCACGTACGAACGAGTACTTTACCGGAGTCACCTAGTGCAG”, with 10800 fluorescence intensity (a.u.).
Take “CCTTGAGATGTTTTGTGATTGATGAAAAGGTCTGCTGTATCGGAGTCACCTAGTGCAG”: the binding signal was 25400 fluorescence intensity (a.u.).
In the case of “ATCTTTAGTCAATAAATTTTAAATTTTAGAAGTCTGTGTACGGAGTCACCTAGTGCAG”, the binding signal is 4840 fluorescence intensity (a.u.).
Consider “GAGTATTAATTGTACATAATCAATTGAGTATTAATTATTACGGAGTCACCTAGTGCAG”, for which the binding signal was 18500 fluorescence intensity (a.u.).
With “TCAACTAATGAATTAATCTATTTGATCAACTCCTATAAATCGGAGTCACCTAGTGCAG”, the binding signal is 9630 fluorescence intensity (a.u.).
For the sequence “CGTTGTTTTGATTATGATATCACAACTTCAAACATTCTTTCGGAGTCACCTAGTGCAG”, the binding signal was 6500 fluorescence intensity (a.u.).
For “TTTCAAAATTTATGTCAAAATTTTCTGCACTAATTATTTACGGAGTCACCTAGTGCAG”, the binding signal was 7840 fluorescence intensity (a.u.).
Then “ATCTAGATGGAGTTAACATTTTATAAATATGTTTGGCTTGCGGAGTCACCTAGTGCAG”, with 3510 fluorescence intensity (a.u.); and “AATAATAAATTAAAATAGCCTTTACCGGTGCAACGCACGACGGAGTCACCTAGTGCAG”, with 10600 fluorescence intensity (a.u.).
Then “ATATATATATATATATATATATATATGCAGCAACAGGGCCCGGAGTCACCTAGTGCAG”, with 43100 fluorescence intensity (a.u.); and “TTAAACCGTTTGATTGGTAGGGGAAATGAGGTGGCCGCCGCGGAGTCACCTAGTGCAG”, with 26400 fluorescence intensity (a.u.).
